# For part of its entries the source gives two or more results. Only these are listed. There may be further records. The records of an entry repeat one measurement (runs, samples, wells, individuals or studies).
# Tested on: 628569-122-R-J1-PDC complex spheroid viability
# Assay: Anticancer human tumor 628569-122-R-J1-PDC patient-derived head and neck squamous carcinoma cell line growth inhibition [CLK]
# Conditions: compound alone
# Source text: A high-throughput screen of multi-cell type tumor spheroids was designed to identify active combinations of […] and targeted small molecules. Complex spheroids include a stromal component modeled by human endothelial cells (HUVEC) and fibroblasts modeled by human mesenchymal stem cells (MSCs). The concentration ranges selected for each drug and investigational agent were based upon clinically achievable concentrations if the clinical Cmax of the agent was known.
# Compounds. The drugs and investigational agents: cirtuvivint (SM08502; NSC835563), CC-671 (NSC850746), vemurafenib (NSC761431), tapotoclax (NSC804041), sotorasib (NSC818433), adagrasib (NSC831453), MRTX-1133 (NSC836407), BAY2416964 (NSC825713), copanlisib (NSC816437), inavolisib (NSC800729), abemaciclib (NSC768073), osimertinib (NSC779217), entinostat (NSC756642), eltanexor (KPT-8602, NSC794443), venetoclax (NSC766270), ceralasertib (NSC777638), bortezomib (NSC756655), olaparib (NSC753686), talazoparib (NSC767125), alisertib (NSC759677), peposertib (NSC802822), gemcitabine (NSC613327), 5-fluorouracil (NSC19893), SN-38 (NSC673596), oxaliplatin (NSC266046), paclitaxel (NSC125973), and doxorubicin (NSC123127), were obtained from the National Cancer Institute (NCI) Developmental Therapeutics Program Chemical Repository. […] If the clinical Cmax for an agent had not been determined, the highest concentration tested was 10 microM. […]
# 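Further: spheroids exposed to agents for seven days before readout.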
IC50,Compound,"IC50 (combination, run of 09/19/2023)"
–,CNC(=O)c1ccc(Nc2nc(OC3CCCC3)c3c(-c4ccc5nc(C)oc5c4)c[nH]c3n2)c(OC)c1,"291 nM, 196 nM, 182 nM, 486 nM, 855 nM, 217 nM, 302 nM, 775 nM, 1.47 µM, 331 nM, 359 nM, 369 nM"
39.5 nM and < 3.16 nM,CCc1c2c(nc3ccc(O)cc13)-c1cc3c(c(=O)n1C2)COC(=O)[C@]3(O)CC,–

# Source: PubChem BioAssay AID2060611 (Molecular Pharmacology Branch, DTP, NCI, 2025)
